Nonsense suppression data for 54 variants are collected here from the RNAGym collection of RNA variant scans (doi:10.1101/gad.245936.114).

B1: tRNA (parent)
chain: CUCUCGGUAGCCAAGUUGGUUUAAGGCGCAAGACUUUAAUUUAUCACUACGAAAUCUUGAGAUCGGGCGUUCGACUCGCCCCCGGGAGAUUUUUUCCUCGAGCAA

Variants at the floor of the assay are shown more often than the library holds them.

This data set covers variants of B1. Briefly: nonsense suppression (GFP-seq) (ratio to wild type); higher = more function; SUP4oc tRNA, yeast GFP reporter sort-seq. A digest of the protocol: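 To measure nonsense suppression, tRNA variants from a library carrying ~3% random mutations were integrated into the yeast genome alongside RFP and a GFP ochre reporter under galactose control. Growth took place in raffinose/galactose medium supplemented with 80 mg/L adenine, followed by sorting into GFP/RFP bins and Illumina sequencing of each bin (phred ≥30). For each variant with ≥100 reads and ≥30 cells, the bin median GFP/RFP values were weighted by its estimated cell share per bin and referenced to the unmutated parent tRNA.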
Regarding CGCUCGGUAGCCAAGUUGGUAUAAGGCGCAAGACUUUAAUUUAUCACUACGAAAUCUUGAGAUCGGCCGUUCGACUCGCCCCCGGGAGAUUUUUUCCUCGAGCAA, the nonsense suppression is ≤ 0.026.
In the case of CUCUCGGUAGCCAAGUGGGUUUAAGGCGCAAGACUUUAAUUUAUCACUACGAAACCUUGAGAUCGGGCGUUCGACUGGCCCCCGGGAGAUUUUUUCCUCGAGCAA, the nonsense suppression is ≤ 0.026.
As to CUCUCCGUAGCCUAGUUGGUUUCAGGCGCAAGACUUUAAUUUAUCACUACGAAAUCUUGAGAUCGGGCGUUCGACUCGCCCCCGGGAGAUUUUUUCCUCGAGCAA, the nonsense suppression was ≤ 0.026.
For CUCUCGGUAGCCAUGUUGGUUUAAGGCGGACGACUUUAAUUUAUCACUACGAAAUCUUGAGAUCGGGCGUUCGACUCGCCCCCGGGAGAUUUUUUCCUCGAGCAA the value was ≤ 0.026; for UUCUCGGUAGCCAAGUUGGAUUAAGGCGCAAGACUUUAAUUUAUCACUACGAAAUCUUGAGAUCGGGCGUUCCACUCGCCCCCGGGAGAUUUUUUCCUCGAGCAA, 0.722; for CUCUCGGUAGCCAAGUUGGUUUAAGGCGCAAGACUUUAAUUUAUCACUACGAAAUCUUAAGAUCGGGCCUUCGACGCGCACCCGGGAGAUUUUUUCCUCGAGCAA, ≤ 0.026.
For CUCUCGGUAGCCAAGUUGGUUUAAGGCGCAUGACUUUAAUUUAUCACUACGAAAUAUUGAGAUCGGGCGCUCGACUCGCCCCCGGGAGAUUUUUUCCUCGAGCAA the value was ≤ 0.026; for CUCUCGGUAGCCAAGUUGGUGUAAGGCGCAAGACUUUAAUUUAUCACUACGAAAUCUUGCGAUCGGGCGUUCGUCUCGCCCCCGGGAGAUUUUUUCCUCGAGCAA, ≤ 0.026.
With CUCUCGGUAGCCAAGUUGGUUUAAGGCGCAAGACUUUAAUUUAUCACUACGAAAUCUUGAGAUCGGGCGUUCGAAUCCCCCCCGGGAGAUUUUUUCCUCGAGCAA, the nonsense suppression amounted to 1.
With CUCUCGGUAGCCAAGUUUGUUUAAGGCGCAAGACAUUAAUUUAUCACUACGAAAUCUUGAGAUCGGGCGUUCGACUCGCCCCCGUGAGAUUUUUUCCUCGAGCAA, the nonsense suppression is ≤ 0.026.
For CUCUCGGUAGCCAAGUUGGUUUAAGUCGCAAGACUUUAAUUUAUCACUACGAAAUCUUGAGAUCGGACGUUCGACUCGCCCCCGGGGGAUUUUUUCCUCGAGCAA the value was ≤ 0.026.
For CUCUCGAUAGCCCAGUUGGUUUAAGGUGCAAGACUUUAAUUUAUCACUACGAAAUCUUGAGAUCGGGCGUCCGACUCGCCCCCGUGAGAUUUUUUCCUCGAGCAA the value was ≤ 0.026; for CUCUCGGUAGCCAAGUUGGUUUAAGGCGCAAGACUUUAAUUUAUCACUACGAAAUCUUGAGAUCGGGCAUUCUACUCGCCCCCGGGAGAUUUUUUCCUCGAGCAA, ≤ 0.026.
For CUCUCGGUAGCCAAGUUGUUUGAAGGCGCAAGACUUUAAUUUAUCACUACGAAAUCUUGAGAUCGGGCGUUCGACUCGCCCCCGGGCGAUUUUUUCCUCGAGCAA the value was ≤ 0.026; for CUCCCGGUAGCCAAGUUGGUUUAAGGUGCAAGACUUUAAUUUAUCACUACGAAAUCUUGAAAUCGGGCGUUCGACUCGCCCCCGGGAGAUUUUUUCCUCGAGCAA, 0.205; for CUCUCGGUAGCCAAUUUGGUUGAUGGCGCAAGACUUUAAUUUAUCACUACGAAAUCUUGAGAUCGGGCGUUCGACUCGCCCCCGGGAGAUUUUUUCCUCGAGCAA, ≤ 0.026.
CUCUCGGUAGCCAAGUUGGUUUAAGUCGCAAGACUUUAAUUUAUCACUACGAAAUCUUGAGAUCGGGCGUUCGACUCGCCCCCGGGAGGUUUUUUCCUCGAGCAA: the nonsense suppression is ≤ 0.026.
Turning to CUCUGGGUAGCCAAGUUGGUUUCAGGCGCAAGACUUUAAUUUAUCACUACGAAAUCUUGAGAUCGGGCGUUCGACUCGCCCCCGGGAGAUUUUUUCCUCGAGCAA, the nonsense suppression is ≤ 0.026.
For CUCUCGGUAGCCAAGUUGGUUUAAGGCGCAAGUCUUUAAUUUAUCACUACGAAAUUUUGAGAUCGGGCGUUCGACUCGCCGCCGGGAGAUUUUUUCCUCGAGCAA the value was ≤ 0.026; for CUCUCGGUAGCCAAGUUCGUUUAAGGCGCAAGACUUUAAUUUAUCACUACGAAAUCUUGAGAUCGAGCGUUCGACUCGCCCCCGCGAGAUUUUUUCCUCGAGCAA, ≤ 0.026.
For CUCUCGGUAGCCAAGUUGGUUUAAGGCCCAAGACUUUAAUUUAUCACUACGAAAUCAUGAGAUCGGGCGUUCGACUCGCCCCCGGGAGAUUUUUUCCUCGAGCAA the value was 0.0447.
For CUCUCGGUAGCCAAGUUGGUUUAAGGCGCAUGACUUUAAUUUAUCACUACGAAAUCUUGAGAUCGGGCGUUCGACGCGCCCCCGGGAGAUUUUUUCCUCGAGCAA the value was ≤ 0.026.
Regarding CUCUCGGUAGCCAAUUUGGUUUAAGGCGCAAGAUUUUAAUUUAUCACUACGAAAUCUUGAGAUCGGGCGCUCGACUCGCCCCCGGGAGAUUUUUUCCUCGAGCAA, the nonsense suppression was ≤ 0.026.
For CUCUCGAUAGCCAAGUUGGUUCAAGGGGCAAGACUUUAAUUUAUCACUACGAAAUCUUGAGAUCGGGCGUUCGACUCGCCCCCGGGACAUUUUUUCCUCGAGCAA, the nonsense suppression was ≤ 0.026.
For the variant CUCUCGGCAGCCAAGUUGGUUUUAGGCGCAAGAUUUUAAUUUAUCACUACGAAAUCUUGAGACCCGGCGUUCGACUCGCCCCCGGGAGAUUUUUUCCUCGAGCAA, the nonsense suppression is ≤ 0.026.
In the case of CUCUGGGUAGCCAAGUUGGUUUAAGGCGCAAGACUUUAAUUUAUCACUACGAAAUCUUGAGAUCGGCCGCACGACUCGCCCCCGGGAGAUUUUUUCCUCGAGCAA, the nonsense suppression is ≤ 0.026.
As to CUCUCGGUUGCCAAGUUGGUUUAAGGCGCAAGACUUUAAUUUAUCACUACGAAAUCUUGAGACCGGGCGUUCGACUCGCCCCCGGGAGAUUUUUUCCUCGAGCAA, the nonsense suppression is 0.0507.
CUCUCGGUAGCCAAGUUGGUUCAAGGCGCAAGACUUUAAUUUAUCACUACGAAAUCUUAAGAUCGGGCGUUCGACUCGCCCCCGGGAAAUUUUUUCCUCGAGCAA: the nonsense suppression is ≤ 0.026.
For CUCUCGGUAGCCAAGUUGGUUUAAGUCGCAAGACUUUAAUUUAUCACUACGAAAUCUUUAGAUCGGGCGUUCGACUCGCCCCCGGGAGAUUUUUUCCUCGAGCAA the value was ≤ 0.026; for CUCUCGGUAGCCAAGUUUGUUUAAUGCGCAAGACUUUAAUUUAUCACUACGAAAUCUUGAGAUCGGGCGUUCGACUCGCGCCCGGGAGAUUUUUUCCUCGAGCAA, ≤ 0.026.
As for CUCUCGGUGGCCAAGUUGGUUUAAGGCGCAAGACUUUAAUUUAUCACUACGAAAUCUUGAGAUCGGGCGUUCUACUCGCCCCCGGGAGAUUUUUUCCUCGAGCAA, the nonsense suppression worked out at 0.053.
Regarding CUCUUGGUAGUCAAGUUGGUUUAAGGCGCAAGACUUUAAUUUAUCACUACGAAAUCUUGAGAUCGGGCGUUCGACUCACCCCCGGGAGAUUUUUUCCUCGAGCAA, the nonsense suppression is ≤ 0.026.
Take CUCUCGGUAGCCAAGUUGGUUUUAGGCGCAAGUCUUUAAUUUAUCACUACGAAAUCUUGAGAUCGGGCGUUCGACUCGCCCCCGGGAGAUUUUUUCCUCGAGCAA: the nonsense suppression was ≤ 0.026.
Regarding CUCUCGGUAGCCCAGUUGGUUUAAGGCGCAAGACUUUAAUUUAUCACUACGAAAUCUUGAGAUCGGGCGUUCGACUCGCCCCCGGGAGCUUUUUUCCUCGAGCAA, the nonsense suppression is ≤ 0.026.
Consider CUCUCGGUAGCCAAGUUGGUUUAAGCCGCAAGACUUUAAUUUAUCACUACGAAAUCUUGUGAUGGGGCGUUCGACUCGCCCCCGGGAGAUUUUUUCCUCGAGCAA, for which the nonsense suppression was ≤ 0.026.
For AUCUGGGUAGCCGAGUUCGUUUAAGGCGCAAGACUUUAAUUUAUCACUACGAAUUCUUGAGAUCCGGCGUUCGACUCGCCCCCGGGAGAUUUUUUCCUCGAGCAA the value was ≤ 0.026.
For CUCUCGUUAGCCAUGCUGGUUUAUGGCGCAAGACUUUAAUUUAUCACUACGAAAUCUUGAGAUCGGGCGUUCGACUCGCCCCCGGGAGAUUUUUUCCUCGAGCAA the value was ≤ 0.026; for UUCUCGGUAGCCAAGUUGGUUUAAGGCGCAAGACUUUAAUUUAUCACUACGAAAUCUUGAGAUCGGGCGUUCGACUCGCCCUCGGGAGAUUUUUUCCUCGAGCAA, ≤ 0.026; for CUCUUGGUAGCCAAGUUGGUUUAAGGCGCAAGACUUUAAUUUAUCACUACGAAAUCUUGAGGUCGGGCGUUCGACUCGCCCCCGGGAGAUUUUUUCCUCGAGCAA, ≤ 0.026.
For CUCUCGGUAGCCAAGUUGGUUUAAGGCGCUAGACUUUAAUUUAUCACUACGAAAUCUUGAGGUCAGGCGUUCGACUCGCCCCCGGGAGAUUUUUUCCUCGAGCAA the value was ≤ 0.026.
Regarding CUCUCGGUAACCAAGUUGGUUUAAGGCGCAAGACUUUAAUUUAUCACUACGAAAUCUUGAGAUCGGGCGUUCCACUCGCCCCCGGGAGAUUUUUUCCUCGAGCAA, the nonsense suppression is ≤ 0.026.
Consider CUCUCGGUUGCCAAGUUGGUUUAAGGCGCAAGACUUUAAUUUAUCACUACGAAAUCUUGAGAUCGGGAGUUCGACCCGCCCACGGGAGAUUUUUUCCUCGAGCAA, for which the nonsense suppression was ≤ 0.026.
For CUCACGGUAGCCAAGUUGGUUUAAGGCGUAAGACUUUAAUUUAUCACUACGAAAUCUUGUGAUCGGGCGUUCGACUCGCCCCCGGGAGAUUUUUUCCUCGAGCAA the value was ≤ 0.026; for CUCUCGGUAGCCGAGUUGGUUUAGGGCGCAAGACUUUAAUUUAUCACUACGAAAUCAUGAGAUCGGGCGUUCGACUCGCCCCCGGGAGAUUUUUUCCUCGAGCAA, ≤ 0.026.
For CUUUCGGUAGCCAAGUUGGUUUAAGGCGCAAGACUUUAAUUUAUCACUACGAAAUCUUGAGAUCGGGCGUUCGACUCGCCGCCGGGAGAUUUUUUCCUCGAGCAA the value was ≤ 0.026.
Regarding CUCUCGGUAGCCAAGUUGGUUUAAGGUGCAAGACUUUAAUUUAUCACUACGAAAUCUUGAGAUCGGGCGUUCGACCCGCCCCCGGGAGUUUUUUUCCUCGAGCAA, the nonsense suppression is ≤ 0.026.
For CUCUCGGUAGCAAAGUUGGUUCAAGGCGCAAGACUUUAAUUUAUCACUACGAAAUCUUGAGAUCGGGCGUUCGACUCGCCCCCGGGAGAUUUUUUCCUCGAGCAA the value was ≤ 0.026; for CUCUCGGUAUCCAAGUUGGUUUAAGUCGCAAUACUUUAAUUUAUCACUACGAAAUGUUCAGAUCGGGCGUUCGACUCACCGCCCGGAGAUUUUUUCCUCGAGCAA, ≤ 0.026.
With CUCUCGGUAGCCAAGUUGGUUUAGGGCGCAAGACUUUAAUUUAUCACUACGAAAUCGUGAGAUCGGGCGUUCGACUCGCCCCCUGGUGAUUUUUUCCUCGAGCAA, the nonsense suppression is ≤ 0.026.
Consider CUCUCGGUAGCCAAGUUGGUUUAAGGCGCAAGACUUUAAUUUAUCACUACGAAAUCUUGAGAUCGGGCGUUCGACUCGACCCCGGCAGAUUUUUUCCUCGAGCAA, for which the nonsense suppression was ≤ 0.026.
For CUCUCGGUAGUCAAGUUGGUUUACGGCGCAAGACUUUAAUUUAUCACUACGAAAUCUUGAGAUCGGGCGUUCGACUCGCCCCCGGGAGAUUUUUUCCUCGAGCAA the value was ≤ 0.026; for CUCUCGGUGGCCAAGUUGGUCUAAGGCGCAAGACUUUAAUUUAUCACUACGAAAUCUUGUGAUCGGGCGUUCGACUCGCCCCCGGGAGAUUUUUUCCUCGAGCAA, ≤ 0.026; for CUCUCGGUAGCCAAGUUGGUUCAGGGCGCAAGACUUUAAUUUAUCACUACGAAAUCGUGAGAUCGGGCGUGCGACUCGCCCCCGGGAGAUUUUUUCCUCGAGCAA, ≤ 0.026.
For CUCUCGGUAGCCAAGUUGAUUUAAGGCGCUAGACUUUAAUUUAUCACUACGAAAUCUUGAGAUCGGGCGUUCGACUCGCCCCCGGGAGAUUUUUUCCUCGAGCAA the value was ≤ 0.026.
